Laboratory results reported in PubChem BioAssay AID652104 (National Center for Advancing Translational Sciences (NCATS), 2013).
About 7,200 (1.8%) of roughly 410,000 compounds were called active. The shares of active, inactive and inconclusive entries below differ from those in the screen. The call rests on the fitted dose curve; in most records, active means well fitted activation curve with a large enough effect; inconclusive means small, poorly fitted or top-dose-only effect, or another doubt; inactive means no such curve, though single readings can be large or run the other way. Potencies of inconclusive entries are left out as doubtful fits.

assay: qHTS of TDP-43 Inhibitors; settings: TDP-43 expressing yeast growth rescue, BacTiter-Glo, 24 h; growth rescue (activation): at 46.1 µM (top of the series) unless noted; further: nearly all actives have a fitted effect of over 50% in size; on growth rescue (activation): % of control where 0% means no effect
Outline: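 Growth rescue of TDP-43-toxic yeast measured as ATP luminescence (BacTiter-Glo). Cells grown to mid-log in raffinose, induced in galactose at OD600=0.02, exposed to compound 24 hr at 30 deg C.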
Potency means the concentration at half of the fitted maximal effect; tags describe the fitted curve by direction and shape.

Row | Structure (SMILES) | Potency | growth rescue (activation)
1 | COc1ccc(Nc2nc(-c3ccc4c(c3)NC(=O)CO4)cs2)cc1 | inconclusive [activator, single point] | 
2 | Cc1ccc(OCCSc2nnc(-c3ccncc3)n2C)cc1 | inconclusive [activator, partial curve] | 
3 | Cc1oc2ncn(CC(C)C)c(=O)c2c1C(=O)NCCc1ccc(Cl)cc1 |  | inactive: 27%
4 | CCOc1ccc(C(=O)c2ccc([N+](=O)[O-])cc2Cl)cc1 | inconclusive [activator, single point] | 
5 | O=C(NCc1ccccc1)c1ccc(CSc2ccccc2)o1 | inconclusive [activator, partial curve] | 
6 | O=S(=O)(Nc1ccc(-c2ccc3nncn3n2)cc1)c1ccccc1F | inconclusive [activator, partial curve] | 
7 | Cc1cc2oc(=O)cc(CN3CCOCC3)c2c(C)c1Cl | inconclusive [activator, partial curve, poor fit] | 
8 | CC(C)NC(=O)NC(=O)COC(=O)Cc1ccsc1 | inconclusive [activator, full curve] | 
9 | COC(=O)CNC(=O)c1cccc(-c2ccc(OC)cc2)c1 | inconclusive [activator, single point] | 
10 | CCCCC(=O)N1CCCC(c2nc(-c3cccc(OC)c3)no2)C1 (stereo not given) | inconclusive [activator, partial curve] | 
11 | COC(=O)[C@@]1(Cc2ccc(F)cc2)[C@H]2c3cc(C(=O)N4CCCC4)n(Cc4ccc(Cl)c(C(F)(F)F)c4)c3C[C@H]2CN1C(=O)c1ccccc1 | inconclusive [activator, single point] | 
12 | COc1ccccc1NC1=C(Cl)C(=O)N(c2ccccc2)C1=O | active: 6.31 µM | 
13 | CCC(=O)N1c2ccccc2CC1C(=O)N1CCN(c2cccc(OC)c2)CC1 (stereo not given) |  | inactive: 0%
14 | Cc1[nH]c2ccccc2c1C(=O)COC(=O)c1c(-c2ccccc2)noc1C | inconclusive [activator, single point] | 
15 | CC(=O)c1ccc(S(=O)(=O)Nc2ccc(-c3ccc(N4CCCCC4)nn3)cc2)cc1 |  | inactive: 3.9%
16 | CCc1ccc(NC(=O)Cn2ccn(-c3ccc(OC)cc3)c(=O)c2=O)cc1 |  | inactive: -3.05%
17 | CCCCc1cc(=O)oc2cc(C)cc(OCC(=O)N3CCC(C(N)=O)CC3)c12 | inconclusive [activator, partial curve] | 
18 | CC(C)N(C(=O)[C@H]1CC(CC(=O)NCCC2=CCCCC2)C(=O)N2CCc3c([nH]c4ccccc34)[C@]12C)C(C)C (stereo not given in full) | active: 35.5 µM | 
19 | Cc1cc2nc(CS)[nH]c2cc1C | inconclusive [activator, partial curve] | 
20 | CC1(C(=O)NS(=O)(=O)C2CC2)CCCN(C(=O)c2ccccc2)C1 (stereo not given) | inconclusive [activator, single point] | 
21 | O=[n+]1cc(-c2cc3ccccc3o2)n([O-])c2c1CCCC2 | inconclusive [activator, single point] | 
22 | COc1ccc(C2=Nn3c(nnc3C(F)(F)F)SC2)cc1 | inconclusive [activator, partial curve] | 
23 | COc1cccc(Nc2nc3ccc(OC)cc3s2)c1 | inconclusive [activator, partial curve] | 
24 | O=C(CSc1nccn1-c1ccccc1)Nc1ccc2c(c1)OCO2 | inconclusive [activator, partial curve] | 

Row | Structure (SMILES) | Potency | growth rescue (activation)
25 | COc1ccc(/C=C/C(=O)N2CCCc3ccccc32)cc1 | active: 20 µM | 
26 | COc1cccc(NC(=O)C2CC(=O)N/C(=N/NC(=O)c3ccc(C)cc3)S2)c1 (stereo not given) | inconclusive [activator, partial curve] | 
27 | CCOc1cc(/C=C/c2ccc3cccc([N+](=O)[O-])c3n2)ccc1O | active: 15.8 µM | 
28 | Cc1ccc(C(=O)NCC(=O)NCC(=O)OCc2ccc(Oc3ccc([N+](=O)[O-])cc3)cc2)cc1 |  | inactive: 3.71%
29 | Cn1c(N2CCCC2)nc2c1c(=O)n(Cc1cccc(F)c1)c(=O)n2C | inconclusive [activator, single point] | 
30 | CCCn1c(=O)c2ccccc2n2c(SCCOc3ccccc3F)nnc12 | inconclusive [activator, partial curve] | 
31 | CCc1ccc(CN(C)C(=O)CCc2nc3ccccc3n(-c3ccc(OC)cc3)c2=O)cc1 | active: 17.8 µM | 
32 | O=C(CSCc1cnn(-c2ccccc2)c1-n1cccc1)NCc1ccc2c(c1)OCO2 |  | inactive: 10.3%
33 | N#CC(=C1C=CC(=NO)C(Cl)=C1)c1ccccc1 | active: 7.08 µM | 
34 | O=C(c1ccc([N+](=O)[O-])cc1)N(Cc1ccco1)c1ccccn1 | inconclusive [activator, partial curve, poor fit] | 
35 | COc1ccc(NC(=O)C2CCN(S(=O)(=O)c3cn(C)cn3)CC2)cc1Cl |  | inactive: 21.7%
36 | COc1ccc(NC(=O)c2ccco2)cc1NC(=O)c1ccc(C)cc1 | inconclusive [activator, full curve] | 
37 | CCN(CC(=O)NCc1cccs1)C(=O)/C=C/c1cc(OC)c(OC)c(OC)c1 |  | inactive: -8.13%
38 | Cc1cc([N+](=O)[O-])ccc1-c1ccc(C2Nc3ccccc3C(=O)N2O)o1 (stereo not given) | inconclusive [activator, single point] | 
39 | O=C(NCCc1ccc(Cl)cc1)c1cc2ccccn2n1 | inconclusive [activator, partial curve, poor fit] | 
40 | COc1ccc(Nc2nc3cc(-c4ccccc4C)sc3c(=O)n2C)cc1OC | inconclusive [activator, single point] | 
41 | Cc1cc(C)c2c(n1)SCC(=O)N2CC(=O)Nc1ccccc1C |  | inactive: 20.2%
42 | CCN1CCN(C(=O)c2oc(=O)c3ccccc3c2-c2ccc(C)cc2)CC1 | inconclusive [activator, partial curve] | 
43 | Cc1oc(-c2ccc(Cl)cc2)cc1C(=O)O | inconclusive [activator, full curve] | 
44 | CCOc1ccccc1OCC(=O)OC(C)C(=O)Nc1ncc(Cl)cc1Cl (stereo not given) |  | inactive: 3.6%
45 | COc1cc(CN(C(=O)COc2ccc(Cl)cc2)c2ccccn2)cc(OC)c1OC |  | inactive: 18.2%
46 | COCCCNC(=O)c1ccc(-c2c(C)noc2C)c2ccoc12 | inconclusive [activator, partial curve] | 
47 | CC(=O)Nc1c(C(=O)N2CCOCC2)sc2nc3c(cc12)COC(C)(C)C3 |  | inactive: -18.8%
48 | CCOC(=O)Cn1cc(C(=O)c2cccs2)c2ccccc21 | active: 17.8 µM | 

Row | Structure (SMILES) | Potency | growth rescue (activation)
49 | Cc1nc(N2CCCC2)ncc1C(=O)NCc1ccc(Cl)cc1 | inconclusive [activator, partial curve, poor fit] | 
50 | COc1ccccc1N1CCN(S(=O)(=O)c2ccc(-c3ccno3)cc2OC)CC1 | active: 12.6 µM | 
51 | Cc1cccc(NC(=O)c2cc(CN3CCOCC3)on2)c1C |  | inactive: -1.28%
52 | O=C(c1cccc(-n2cccc2)c1)N1CCN(S(=O)(=O)c2ccccc2Br)CC1 | inconclusive [activator, single point] | 
53 | Cc1cccc(C(=O)NCC(=O)N2CC=C(c3ccccc3)CC2)c1 | inconclusive [activator, single point] | 
54 | CN(C)c1ccc(C=Nc2ccccc2C(N)=O)cc1 | active: 11.2 µM | 
55 | Cc1ccc(CN2C(=O)C(O)(CC(=O)c3ccc(C)cc3)c3ccccc32)cc1 (stereo not given) |  | inactive: 5.91%
56 | O=C(/C=C/c1ccc2c(c1)OCCCO2)c1ccccc1O | active: 12.6 µM | 
57 | CCOC(=O)C1CCCN(C(=O)Cn2c(=O)cc(C)c3c(C)nn(C)c32)C1 (stereo not given) |  | inactive: 27%
58 | O=C1CC(N2CCN(c3ccccn3)CC2)C(=O)N1CC(c1ccccc1)c1ccccc1 (stereo not given) | inconclusive [activator, single point] | 
59 | COC(=O)c1ccccc1SC1CC(=O)N(c2ccccc2)C1=O (stereo not given) | inconclusive [activator, partial curve] | 
60 | COc1ccccc1-c1cc(-c2ccc(O)cc2)nc(N)c1C#N | active: 31.6 µM | 
61 | CCC(C)Nc1nc(-c2cccc(OC)c2O)nc2ccccc12 (stereo not given) | active: 11.2 µM | 
62 | O=C1Cc2ccccc2C(=O)N1OCc1ccc(Cl)cc1 | inconclusive [activator, partial curve] | 
63 | COc1ccc2[nH]cc(CCN=C(NC(=O)c3cccc(Cl)c3)Nc3nc(C)cc(C)n3)c2c1 | inconclusive [activator, partial curve] | 
64 | Cc1ccc(NC(=O)c2cc(S(=O)(=O)NC3CCCCCC3)ccc2F)cc1F | inconclusive [activator, single point] | 
65 | Fc1ccccc1Cn1cc(C(=S)N2CCOCC2)c2ccccc21 | inconclusive [activator, partial curve] | 
66 | CC1CCCCC1NS(=O)(=O)c1ccc2c(c1)CCC(=O)N2 (stereo not given) | inconclusive [activator, full curve, poor fit] | 
67 | Cc1cccc(OCc2nc(C#N)c(NCc3ccc4c(c3)OCO4)o2)c1 | inconclusive [activator, single point] | 
68 | Cc1onc(-c2ccccc2Cl)c1-c1nc(-c2ccncc2)no1 | inconclusive [activator, single point] | 
69 | CCN(CC)c1ccc(/C=C2\SC(=O)N(C(C)C)C2=O)o1 | inconclusive [activator, partial curve] | 
70 | O=C(c1n[nH]c2ccccc12)N1CCN(S(=O)(=O)c2ccccc2)CC1 | inconclusive [activator, partial curve, poor fit] | 
